Whole data set: some 33,000 sequences, median “E-score (-0.5 to 0.5)” near -0.032, cut for the highest 2% near 0.36. The list shows a part of the results.
target: T1, Sko1 (UniProt Q02100); experiment: PBM E-score (8-mer binding enrichment) (E-score (-0.5 to 0.5)); higher = stronger / more preferred TF binding; most listed sequences are background and not binding sites; conditions: protein concentration: 200 nM; construct: GST-full length
T1 sequence: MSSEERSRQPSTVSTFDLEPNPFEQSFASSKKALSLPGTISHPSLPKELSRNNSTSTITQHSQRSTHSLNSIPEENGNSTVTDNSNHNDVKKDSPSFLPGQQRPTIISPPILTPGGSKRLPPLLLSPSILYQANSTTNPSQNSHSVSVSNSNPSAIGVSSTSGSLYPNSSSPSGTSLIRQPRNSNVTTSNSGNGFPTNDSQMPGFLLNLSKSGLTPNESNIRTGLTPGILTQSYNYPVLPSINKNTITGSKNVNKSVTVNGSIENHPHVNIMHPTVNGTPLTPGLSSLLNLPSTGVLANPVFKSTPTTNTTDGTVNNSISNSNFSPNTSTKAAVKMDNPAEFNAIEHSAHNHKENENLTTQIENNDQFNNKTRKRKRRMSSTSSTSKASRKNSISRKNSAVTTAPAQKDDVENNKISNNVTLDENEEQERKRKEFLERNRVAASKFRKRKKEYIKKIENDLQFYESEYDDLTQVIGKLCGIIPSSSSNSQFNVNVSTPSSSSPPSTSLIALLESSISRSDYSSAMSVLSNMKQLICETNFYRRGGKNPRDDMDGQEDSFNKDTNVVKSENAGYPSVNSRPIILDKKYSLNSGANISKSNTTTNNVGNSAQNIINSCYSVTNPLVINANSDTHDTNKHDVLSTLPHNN
Outline: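 Universal all-10-mer Agilent arrays, double-stranded by primer extension on fresh or once-stripped slides, were probed with about 100-200 nM GST-tagged yeast transcription factors made by PURExpress. Fluorescent anti-GST detected bound protein, and masliner normalised the scans. E-scores from the Universal PBM Analysis Suite were given to each ungapped eight-base word pooled with its reverse complement.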

Sequence | PBM E-score
ATTTTAAG | 0.165
CATTTTCG | 0.164
AAGGGCGT | -0.151
AGGTAACG | -0.0561
CACTCTCG | 0.108
GGATAGAA | -0.00286
CCTGCGAG | -0.15
GCTAGACA | -0.0062
GCCCTGCA | -0.302
CGGCTGTA | -0.14
AGACGTAA | 0.447
AACCGAAG | 0.00243
AAGATACC | -0.0424
CTCCTGAA | -0.0557
ATCCATTG | -0.0529
GGCATGGA | -0.134
CTGAATGC | -0.0683
AGCGCCAG | -0.198
ACTCAGGC | -0.117
CCTGTCAA | -0.0383
AGCACCCT | -0.356
GTTATGTA | 0.17
TCCAGGGA | -0.168
CACACTCC | -0.0125
ACAGGGCG | -0.14

Sequence | PBM E-score
AGGAGCTG | -0.187
AAGGGCGA | -0.229
ATCCCGTG | 0.0438
AACATATC | 0.0715
GCTCGGGA | -0.176
CGGGAGAC | -0.136
GATACGTA | 0.48
ATGTGTGA | 0.08
ATCTTTCC | 0.0653
AAGTAATC | 0.132
AGTGAAAG | 0.0502
CAAGGTCA | -0.144
ATTCTCGC | -0.177
CCATGCCA | -0.16
CAAACTAG | -0.182
ATGAACAT | 0.108
CAGGATAG | -0.101
AGGTGCCC | -0.257
GAACAGTC | -0.191
ATCTTGGC | -0.119
AGAAAGAG | -0.257
CCCGTTTC | -0.349
TACGCATA | 0.368
CTTGTCGC | -0.183
TATCGAAA | 0.156

Sequence | PBM E-score
ACTGAGAT | 0.0107
AGGGAACA | -0.0852
AACTAAAG | 0.228
AAATATGG | 0.0165
CTTGGGCC | -0.209
ATCAAGGG | 0.00668
CAGGATTA | 0.101
GTATCAAC | 0.0145
ACGACGAT | 0.127
CGAGCACC | -0.2
CCTGACTC | -0.238
CAGAGATG | 0.151
CATCTTCA | -0.108
GCCCATCA | -0.185
AGACCTTC | -0.174
AACTGAAA | 0.113
CTCTCGCA | -0.299
CCCAAGAC | -0.0563
GCGCCCGC | -0.165
GCGATCCC | -0.26
CATCGGTC | -0.235
CCAGCGCG | -0.0549
GCAAGAAC | 0.174
TCAATTGA | 0.113
CAGAAATA | 0.168

Sequence | PBM E-score
CTCCGAAG | -0.216
AACGGCAC | -0.155
GAGCTCGA | 0.0595
ATGCCCTC | -0.0747
CCTTTGTC | -0.223
ATCATCGC | 0.185
CTACAGAA | 0.0374
CCCTTGTA | -0.0784
TCCGGGAA | -0.161
CAGAGATC | -0.178
TAGGCACA | -0.00902
GTGATTTA | 0.177
AATCGTGG | 0.143
CCCTCACG | -0.0248
AATTTTTG | 0.246
AGACGACG | 0.185
ATCCAGTA | 0.0121
GCATGCCC | 0.0522
AAAAGGAG | -0.207
GGGTTGAC | -0.115
AAGTCAAA | 0.13
TGAGGACA | 0.0403
AAGCACGG | -0.00706
GCTCGCAC | -0.112
TCTAACCA | 0.124

Sequence | PBM E-score
CGGCCGGA | -0.308
CCTACAGC | -0.116
AAACATTA | 0.0863
CCCACAGG | -0.238
CCGCTTAG | -0.278
ACGCACTA | 0.321
AGCGCGGA | -0.239
CTTTGCCC | -0.139
CCCCTGAA | -0.0722
ATGTATGG | 0.0987
AGACCCCC | -0.375
ATCTATTA | 0.167
CATCCAAG | -0.175
AGCACGAT | -0.0247
CCTTCAAG | -0.0978
AAGGGTAG | -0.194
GCTAGTTA | 0.0505
GCAGAATA | 0.0667
CAACTCAC | 0.00457
ACGAGCCC | -0.159
TGAACAAA | 0.227
AGGATATG | 0.016
ATTCTATG | 0.0207
ATACCGAA | 0.159
CAGTCTGG | -0.312

Sequence | PBM E-score
ATACGGGC | -0.187
ATGTTCAA | 0.0346
CCGCCTTA | 0.0745
CCGCACGG | -0.099
ACAATGCA | 0.0968
CAGGTTGG | -0.151
CGAAAGCC | -0.2
CGTGGTTA | 0.206
AAGACACG | 0.256
AGTCCGTC | 0.0882
AAGTTCCT | -0.0579
AGTACTAA | 0.109
AGATTCCA | 0.203
ATAGTAGA | 0.0227
ACGATGCA | 0.15
AGTATCTG | -0.0323
ACTGTTGA | -0.0735
TATATGAA | 0.119
GAGGTATA | 0.0598
GGCCAACC | -0.242
TATACGAA | 0.301
AATGATAA | 0.317
ACACTCCT | -0.189
AATTCCAC | 0.0242
TCTGGCCA | 0.0305

Sequence | PBM E-score
ATGGGGCG | 0.0291
CCTTAGCA | -0.132
AGAACTGA | 0.201
GCGATACC | -0.207
ATCGACGC | 0.0937
GGCCAGAC | -0.126
ATTTAGTA | 0.25
GGATTAAA | 0.0461
GCGGTTGA | 0.0185
AAACGTAT | 0.429
ACTGGCAA | 0.0324
ACCGTAAA | 0.206
GCGCAAAA | 0.0973
AAATGTGG | -0.0278
CACGTTGC | 0.175
AGGGAGTA | -0.0669
AAGTTCAT | -0.0766
GAGCGCGC | 0.122
GGACCCCC | -0.354
ACTTGCAC | 0.0619
AGACCACC | -0.113
AGGCGGCC | -0.284
